# Results from PubChem BioAssay AID1240 (Sanford-Burnham Center for Chemical Genomics, 2008).
# Among all 50,000 compounds or so, about 800 (1.6%) showed an effect of 50% or more. The list shows a part of the results.
# Target: Bcl-2-like protein 10 (Homo sapiens) (UniProt Q9HD36)
# Experiment: Phenotype converters, Bcl-B/TR3 peptide binding displacement, primary biochemical FP (AID 1240);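 further: 0% = Bcl-B with tracer peptide and DMSO and 100% = tracer peptide lacking Bcl-B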
# Settings: GST-Bcl-B / FITC-TR3 peptide fluorescence polarization; stronger effect = higher value; compound at 3.75 mg/L
# Chain of UniProt Q9HD36 (Q9HD36 whole entry, looked up): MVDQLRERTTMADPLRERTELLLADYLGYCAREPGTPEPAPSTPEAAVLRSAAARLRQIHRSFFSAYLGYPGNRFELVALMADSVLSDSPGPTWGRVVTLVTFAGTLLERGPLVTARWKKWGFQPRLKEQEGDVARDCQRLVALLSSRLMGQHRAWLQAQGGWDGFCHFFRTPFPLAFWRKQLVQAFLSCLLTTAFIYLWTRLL
row,Compound,displacement [%]
1,CCC(CC)C1C(C#N)=C(N)Oc2c1c(=O)oc1ccccc21 (stereo unspecified),-15.4
2,Cc1cc(OCc2ccc([N+](=O)[O-])cc2)c2c3c(c(=O)oc2c1)CCCC3,-3.3
3,Cc1c(C=O)c2ccccc2n1Cc1ccccc1Cl,-10.6
4,O=C(COc1ccc(Cl)cc1)N1CCN(Cc2ccccc2)CC1,-3.3
5,CCC1(CC)C(=O)NC(=O)N(C(=O)c2ccc(Br)cc2)C1=O,9.2
6,CC1(C)OC(c2ccccc2)=C/C(=C/C=C2C(=O)NC(=O)NC2=O)O1,-0.9
7,O=[N+]([O-])/N=C1/NCN(Cc2ccccc2)CN1Cc1ccccc1,-4.2
8,CN(C)c1ccc(C=C2C(=O)NC(=S)N(c3ccccc3F)C2=O)cc1,6.7
9,Cn1c(O)c(C=NC2CC(C)(C)NC(C)(C)C2)c(=O)n(C)c1=O,-2.9
10,COc1ccc(-c2nc3ccccc3c(=O)n2-c2ccccn2)cc1,3.2
11,O=C1c2ccccc2-c2onc3c(Br)cc(N4CC4)c1c23,178
12,O=C(COc1ccc2ccccc2c1)N1CCN(Cc2ccc(Br)cc2)CC1,-0.6
13,Cc1nc2ccccc2c(=O)n1-c1ccc([N+](=O)[O-])cc1,11.9
14,COc1ccc(OC)c(N2C(=O)CC(=O)NC2=O)c1,-5.1
15,O=c1oc2ccccc2c(O)c1C(c1ccccc1F)c1c(O)c2ccccc2oc1=O,9.2
16,O=C(Nc1ccc(Br)cc1C(=O)c1ccccc1)c1ccc([N+](=O)[O-])cc1,7.9
17,COc1cc(OC)c(OC)cc1CN1CCNCC1,-4.5
18,O=C(N1CCN(c2ccccc2Cl)CC1)C(O)(c1ccccc1)c1ccccc1,-0.3
19,CC(C)COc1ccc(Cc2c(O)[nH]c(=S)[nH]c2=O)cc1,-13.2
20,CCC1(Cc2ccccc2)C(=O)NC(=O)NC1=O,4.4
21,C=CCc1cc(/C=C2\C(=O)NC(=O)N(c3cc(C)cc(C)c3)C2=O)cc(OC)c1O,-5.3
22,Cc1cc(OCc2ccccc2)c2c3c(c(=O)oc2c1)CCC3,7.8
23,CC(=O)c1cc(F)c(N2CCN(C)CC2)cc1C,-5.1
24,CCc1c(C)sc(NC(=O)C23CC4CC(CC(C4)C2)C3)c1C(=O)OC,7.9

row,Compound,displacement [%]
1,CCC(C)c1ccc(OCCOc2ccc(C=C3C(=O)NC(=O)NC3=O)cc2)cc1 (stereo unspecified),6.9
2,Cc1cccc(-n2c(-c3cccs3)nc3ccccc3c2=O)c1,1
3,O=c1oc2ccccc2c2c1C(c1ccccc1)c1c(c3ccccc3oc1=O)O2,7.4
4,CCCCC1C(=O)NC(=S)N(c2ccccc2)C1=O (stereo unspecified),-4.2
5,CN1CCN(c2nc3nc(N)[nH]c(=O)c3[nH]2)CC1,-8.4
6,CN=C(C)c1c(O)n(C)c(=O)n(C)c1=O,1.4
7,Cc1cccc(-n2c(-c3ccc(Cl)cc3Cl)nc3ccccc3c2=O)n1,-10.9
8,C=CCOc1ccc(/C=C2\C(=O)NC(=O)N(CC=C)C2=O)cc1OC,10.9
9,c1ccc2c(CCNC3CC4CCC3C4)c[nH]c2c1 (stereo unspecified),7.4
10,c1cncc(CN2CCN(C3CC4CCC3C4)CC2)c1 (stereo unspecified),-3.2
11,O=[N+]([O-])c1ccc2nc(N3CCNCC3)sc2c1,10.1
12,N#CC1=C(N)Oc2c(c(=O)oc3ccccc23)C1c1cccc([N+](=O)[O-])c1 (stereo unspecified),0.9
13,COc1ccccc1CCN(Cc1ccco1)Cc1ccco1,-1.6
14,Cc1cc(C=C2C(=O)NC(=S)NC2=O)c(C)n1-c1ccccc1,104
15,O=C(N1CCN(c2ccccn2)CC1)C(O)(c1ccccc1)c1ccccc1,2.1
16,Cc1ccc(-c2nc3ccccc3c(=O)n2-c2ccccn2)cc1,-8.7
17,Cc1ccccc1CN1CCN(Cc2ccc(F)cc2)CC1,-2.9
18,CC/C(=C\c1cc(Br)c(O)c(OC)c1)[N+](=O)[O-],2.6
19,CCc1ccc(CNCCc2ccc(OC)c(OC)c2)cc1,-11.2
20,Cc1ccc(-n2c(/C=C/c3ccc(O)c(O)c3)nc3ccccc3c2=O)cc1,54.7
21,CCOc1ccc(CNCCc2ccc3c(c2)OCO3)cc1,-9.1
22,COc1ccccc1CN1CCN(Cc2ccccc2F)CC1,-5.2
23,CCNc1ccc(Br)cc1C(=O)c1ccccc1,1.7
24,O=C1NC(=S)N(c2cccc(Cl)c2)C(=O)/C1=C/c1ccc(Cl)cc1,16.4

row,Compound,displacement [%]
1,COc1ccc(CCNCc2cccc([N+](=O)[O-])c2)cc1OC,-9.4
2,CC(C)Oc1ccccc1C=C1C(=O)NC(=O)NC1=O,17.1
3,Cc1ccc(-c2ccc(C=C3C(=O)NC(=S)NC3=O)o2)c(Br)c1,13.7
4,CN(C)S(=O)(=O)c1ccc(C(=O)Nc2ccc(Cl)cc2C(=O)c2ccccc2)cc1,-24
5,COc1cc(C)cc2oc(=O)c3c(c12)CCC3,9.6
6,COc1ccc(CCNCc2ccccc2Cl)cc1OC,-5
7,COc1cc(C)c(CNCCc2ccccc2F)cc1C,-4.7
8,COC(=O)COc1ccc(/C=C2\C(=O)NC(=S)N(c3ccc(C)cc3)C2=O)cc1OC,-13.5
9,COc1cc(C)cc2oc(=O)c3c(c12)CCCC3,-6.4
10,O=c1c2cc(I)ccc2nc(/C=C/c2cccc([N+](=O)[O-])c2)n1-c1ccccc1,10
11,CCOC(=O)C(C(=O)OCC)c1ccccc1,-1.9
12,O=C(Cc1ccccc1)NC(NC(=O)Cc1ccccc1)c1ccc(F)cc1,-6.9
13,CC/C(=C/c1ccc(O)c(OC)c1)[N+](=O)[O-],3.9
14,O=c1c2ccccc2nc(/C=C/c2ccc(Cl)cc2)n1-c1cccc(O)c1,2.8
15,CN1CCN(c2nc3ccc([N+](=O)[O-])cc3s2)CC1,5
16,CC1=NN(c2ccccc2)C(=O)C1/C=C1\C(=O)NC(=O)N(c2cccc(C)c2)C1=O (stereo unspecified),5.7
17,CCOC(=O)CNC(=O)CN1CC1C(=O)OCC (stereo unspecified),-13.6
18,CC1CN(c2ccc([N+](=O)[O-])c(NCCO)c2)CCN1 (stereo unspecified),8.1
19,CCOc1ccc(CN2CCN(Cc3ccccc3)CC2)cc1,-3.3
20,CCc1ccc(CNCCc2ccc3c(c2)OCO3)cc1,-15.8
21,CC(C)N1CCN(Cc2ccccc2Br)CC1,1.2
22,COc1ccc(C=C(C#N)C#N)cc1O,12.3
23,CCC(=O)N1N=C2C3CCN(CC3)C2C1c1ccc([N+](=O)[O-])cc1 (stereo unspecified),-2
24,CCN1CC2([N+](=O)[O-])CC=C(Br)C([N+](=O)[O-])(C1)C2 (stereo unspecified),-17.4

row,Compound,displacement [%]
1,COc1ccc(-n2c(-c3ccncc3)nc3ccccc3c2=O)cc1,-9
2,O=c1oc2ccccc2c(O)c1C(c1cccc(F)c1)c1c(O)c2ccccc2oc1=O,15
3,Cc1cc([N+](=O)[O-])c(C)cc1-c1ccc(C=C2C(=O)NC(=O)NC2=O)o1,8.4
4,CCOc1ccc(CNCCc2ccc(OC)c(OC)c2)cc1,-14.3
5,CCOP(=S)(OCC)SCn1c(=O)oc2cc(Cl)ccc21,15.4
6,O=C1NC(=O)C(=Cc2ccc(-c3ccccc3C(=O)O)o2)C(=O)N1,11.2
7,O=c1c2ccccc2nc(-c2cccs2)n1-c1ccccc1,0.1
8,COc1ccc(CN2CCN(Cc3ccc(F)cc3)CC2)cc1,-3.5
9,N#Cc1c(/N=C/c2c[nH]c3ccccc23)sc2c1CCCC2,4.5
10,Cc1ccc(OCC(=O)N2CCN(C)CC2)c(Br)c1,2.9
11,COc1cc(OC)c(OC)cc1C=C1C(=O)NC(=S)NC1=O,15.1
12,CN1C(=O)NC(=O)/C(=C\c2cccc(Oc3ccccc3)c2)C1=O,-15.8
13,O=C1C=CC(=O)C(c2cc(Cl)ccc2Cl)=C1,43.5
14,CN1C(=O)NC(=O)/C(=C\c2ccc([N+](=O)[O-])o2)C1=O,17.3
15,CC1(C)CC2(CCO1)NCCN1C(=O)CSC12 (stereo unspecified),-7.1
16,O=C1NC(=S)NC(=O)C1=Cc1ccc(-c2ccc(C(=O)O)cc2)o1,-49.4
17,CCc1ccc(CNCCc2c[nH]c3ccccc23)cc1,5.3
18,CC12CC3CC(C)(C1)CC(N)(C3)C2,4.3
19,N#CCCOCC#CCN1CCCCC1,-3.3
20,NCCc1c[nH]c2ccc(Cl)cc12,3.5
21,CN1C(=O)C(=Cc2cccc(OCCOc3ccc([N+](=O)[O-])cc3)c2)C(=O)N(C)C1=O,6.4
22,CCOP(C)(=O)CN1CCCCC1 (stereo unspecified),14.1
23,O=c1c2cc(I)ccc2nc(/C=C/c2ccc([N+](=O)[O-])cc2)n1-c1ccccc1,1.1
24,Cc1cccc(N2C(=O)/C(=C/c3ccc(OCc4cccc(C(=O)O)c4)cc3)C(=O)NC2=S)c1,4.9

row,Compound,displacement [%]
1,COc1ccc(CCNC2CCCCC2OC)cc1 (stereo unspecified),3.2
2,CCC1(c2ccccc2)C(=O)NC(=O)N(C(=O)c2cccc(F)c2)C1=O (stereo unspecified),5.4
3,CC(Cc1ccccc1)NC(=O)Cc1ccc(N)cc1 (stereo unspecified),6.4
4,O=c1oc2ccccc2c2c1C(c1cccc(F)c1)c1c(c3ccccc3oc1=O)O2,12.8
5,c1ccc(CN2CCN(C3CCCCC3)CC2)cc1,-15.8
6,Cc1ccc(S(=O)(=O)n2cc(C=C3C(=O)NC(=O)NC3=O)c3ccccc32)cc1,11.6
7,Cn1cccc1CNCCc1ccc2c(c1)OCO2,3.3
8,OC12Oc3ccccc3C=C1N1CCC2CC1 (stereo unspecified),3.9
9,COCCNCCOc1c(C(C)C)cccc1C(C)C,1.8
10,CN1C(=O)NC(=O)/C(=C/c2ccc(-c3cccc([N+](=O)[O-])c3)o2)C1=O,-20.5
11,O=C1NC(=S)NC(=O)C1=Cc1ccc(Sc2ccccc2)o1,25
12,CCOc1cc(C)cc2oc(=O)c3c(c12)CCCC3,3.8
13,COc1ccccc1-n1c(C=C2C(=O)Nc3ccccc32)nc2ccccc2c1=O,-6
14,O=C(c1ccc(-c2ccccc2)cc1)N1CCN(c2cccc(Cl)c2)CC1,4.5
15,CCC1(CCC(C)C)C(=O)NC(=O)N(C(=O)c2ccc(F)cc2)C1=O (stereo unspecified),2.2
16,COc1ccc(O)c(CN2CCN(Cc3cccc(C)c3)CC2)c1,5.8
17,COc1cc(/C=C/[N+](=O)[O-])cc(Br)c1OC(C)=O,6.9
18,O=C1Nc2ccccc2/C1=C/c1nc2ccc(I)cc2c(=O)n1-c1ccccc1,4.5
19,Clc1cccc(CCNCc2cccnc2)c1,-1.1
20,O=C1NC(=O)C(=Cc2ccccc2OCc2ccccc2Cl)C(=O)N1,13.7
